Results reported in the supplement of paper PMC11417369.
This is one part of the list.

tested on: PF3D7_0420300 AP2 domain 1 (GST-tagged); experiment: gcPBM binding intensity (ln(normalized median fluorescence intensity)); higher = stronger DNA binding
Outline: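 For binding intensity, the highest Masliner-normalised natural-log median intensity across replicate spots of either probe orientation was taken. Protein bound to the array was stained with Alexa488 anti-GST antibody and scanned at 488 nm. The protein, GST-tagged P. falciparum DNA-binding domains from E. coli at about 25 μg on average, had been applied for 1 h to an Agilent 4 × 180k array of primer-extended double-stranded 36-bp intergenic genomic probes and negative controls.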

| Sequence | gcPBM binding intensity (ln) |
| --- | --- |
| TTCTTATAAATATACACACACAAAATATCTACAATG [CACACA_site6487] | 9.82 |
| TTATAAGATTTATGTACACACATATACTCACCTCTA [CACACA_site729] | 9.53 |
| CCTTAAAATAAGATATGTACGCAAAGGAAAACAAAG [XGTACX_site6057] | 9.5 |
| TGTGTAAGATCTTGGATGATGATAAGAATCTACTAG [CACACA_negctrl_site1167] | 9.11 |
| TCCATATATGCCTTATGTACATATACCAAATTAACC [XGTACX_site6513] | 9.13 |
| TTTGGCTAGTTAGGCCGTACATGTAAATAATATATA [XGTACX_site1138] | 9.16 |
| TTGGAAAAAGTGAAATGTACATATATATTTATTATT [XGTACX_site6946] | 9.16 |
| AATGAATGTAAGAAAATACACACTAGTATAGTAACA [CACACA_site1955] | 9.65 |
| AATAATAAAGTGAACACACACATATAACATCTATAT [CACACA_site7868] | 9.84 |
| AAAGGATTTATACTAGTGCAAAAATATAAAAATATA | 9.18 |
| GAAGTTTTTTAAAGATGTACTTTTTAAAAATAATCT [XGTACX_site263] | 8.85 |
| TATATAAATAGACACACACACACCTTATAATTACTA [CACACA_site7828] | 10 |
| ATAATAATTAACCTATGTACATAGGAAAGTCATAAA [XGTACX_site4387] | 9.29 |
| AAAAAAAAAAAACACACACACACATACACATACATA [CACACA_site2858] | 10.2 |
| GAAGAAAAATAAAAAGTGCAAAAAAAGTAAAAATTT [GTGCAC_site9897] | 9.57 |
| TATGTATGTGCTTGTGCGCACCGATAATATAGCCAA | 9.24 |
| TGCTATAATTTATATACACACAAATATATACGCATA [CACACA_site4096] | 9.46 |
| TCTCATAGTAGACACACACACACACGCACATATATA [CACACA_site6916] | 10.4 |
| TTTTATGAAAAGTATTGTACGTATAATTTATATGTA [XGTACX_site1639] | 9.04 |
| ACATAAGACACAAATACACACAAAAATATGTAACAA [CACACA_site7836] | 9.71 |
| AAAAAAAAAATTAAATGTACACACACCTTAAACAAT [XGTACX_site3848] | 9.83 |
| TAATGTATTATATTTTGTTTTCTTCCACCAAAAAAA [XGTACX_negctrl_site64] | 9.04 |
| ACCCATATAATATATACACACATATATATATATATA [CACACA_site4731] | 9.52 |

| Sequence | gcPBM binding intensity (ln) |
| --- | --- |
| ATTTTCTTATATATATTTTGTATATATTTTGTACAT [CACACA_negctrl_site1496] | 9.64 |
| AAACAATATTCTCAAGTGCAAAAAGAAAAAAGAAAT | 9.49 |
| TACTTGTTATTAACATGTACAAAAAAAAAAAAAATT [XGTACX_site1338] | 9.08 |
| TTTATTTTTATTTAAAGTACATATCCATTTATTCCT [XGTACX_site1914] | 9.15 |
| AATGTACCCACACCCACACACAAACAAATATATATA [CACACA_site2751] | 9.85 |
| AGATTAAAATATATACGTACATATTATTAATTAATA [XGTACX_site3487] | 9.15 |
| ATAGGATGCATATGAGTGCATTCTGTGTTGTTATAA | 9.12 |
| ATATATATATATAATAAACACACAAATAGATATAAC [CACACA_site9234] | 9.9 |
| TATATATATATATATACATGCATACATATACATACA [TGCATGCA_site897] | 9.14 |
| CTACCTTTAATATATACACACACATAAAAAAAATAT [CACACA_site8548] | 9.98 |
| AGATAAGATATATACACACACATAAATACGTACAAA [CACACA_site6639] | 10.1 |
| ATATTTACAAGTAATAGTACAGTTAATTATATAAAA [XGTACX_site4856] | 9.25 |
| ATTATATAGCTAAAAAAAATAAATTAAAAATATTAA [TGCATGCA_negctrl_site505] | 9.11 |
| AAGAATGTTATTAGTACACACAATTATTATAGAAAT [CACACA_site7714] | 9.51 |
| AATGTACAAATACGTACACACATATTTATATTTATA [CACACA_site6833] | 9.57 |
| TAAAAATTGAAGCACACACACAAAAGAAATACAATA [CACACA_site1113] | 10.2 |
| TTTTTTTTTACTTGTTGTACTTTTTCAAGGTATTGT [XGTACX_site7778] | 9.42 |
| ATATAAAAAAATTGCACACATAAATAAATACAGATA [CACACA_site4806] | 9.66 |
| TATATATTTCATCCTTGTACACATTTGTGTTTACAT [XGTACX_site1132] | 9.45 |
| GTATTGCATGAGGACACACACAAAAAAAATATAGAT [CACACA_site6500] | 9.79 |
| AATAAATAAATATATATATATATATATATATATATA [CACACA_negctrl_site365] | 8.96 |
| TATCAAAATTGTAATTGTACTTGTAAGTGGATATAT [XGTACX_site5949] | 9.2 |
| ACAATTTACACTTAAACACACAAAAAAAAGTTATAT [CACACA_site7056] | 9.56 |

| Sequence | gcPBM binding intensity (ln) |
| --- | --- |
| TAGTTTTTTATATATTGTACAAATAATATATGATAT [XGTACX_site4220] | 9.25 |
| TTTTTTTTTTTTTTCTTACAATTTATTGAACAAATG [XGTACX_negctrl_site515] | 8.84 |
| AGTGATTATTAATAATGTACATATCTATAAATATAT [XGTACX_site4734] | 9.23 |
| TCACCATATAAACGTGCACACTACAAAAATATATAA [CACACA_site5413] | 9.26 |
| TATTTATTTAAAAATTGTACGTAGGATTATACACTT [XGTACX_site286] | 9.07 |
| CTTTTATTTTATTTTAGTACGCAACATTCTCTATAT [XGTACX_site7279] | 9.33 |
| ATATAAATATTATAATGTACATATAATATATTTATT [XGTACX_site5212] | 9.09 |
| ATCTCTGTATGTTAGACACACATATTTTAATATGTT [CACACA_site4244] | 9.34 |
| TAAAATTTGTACATAGTGCAATTTTTTTTTTTTTTT | 8.9 |
| ATATATTGCACTTTTTGTACATAATGAAAAATTTTT [XGTACX_site8223] | 9.25 |
| TACATATTGATATATACACACAAAAAAATAAATTCT [CACACA_site6198] | 9.57 |
| ACCTTAATAAAAAAAAGTACAAACATGTTCAAATTG [XGTACX_site1556] | 9.28 |
| AATTCGTACCTCATTTGTACATATATATATATATAT [XGTACX_site5513] | 9.49 |
| TTTTTTATAGTACATTACCAAAAAAAAAAAAAAAAA [GTGCAC_negctrl_site549] | 8.32 |
| CATACACCCATACATACACACATACAGATATATATA [CACACA_site5123] | 9.74 |
| ATATCATTTTCCTGCACACATAAATTTATATAATAT [CACACA_site1048] | 9.76 |
| ACACATAAATGAATAAATAAATAAATATAAATATAA [CACACA_negctrl_site1784] | 9.41 |
| AGCAAAACATAAAATAGTACACATTTAACAAAAAAA [XGTACX_site2921] | 9.48 |
| AAAAGAACAATGAAGTGTACTAATAATTATTTATGT [XGTACX_site6649] | 9.35 |
| TTTTATCATCTTTTTACATTATGTATAAATATTTTC [CACACA_negctrl_site206] | 9.23 |
| ATATAATATATTTTTGAACACACAATATATATATAT [CACACA_site9368] | 9.31 |
| TAACTAATATATAAAACACACATCATAAAAATATAA [CACACA_site768] | 9.57 |
| TTTTGTTGAAAAGTAAGATATTCCAACATGTTTTTA [CACACA_negctrl_site391] | 9.03 |

| Sequence | gcPBM binding intensity (ln) |
| --- | --- |
| TATATATTATAAAATTGTACATATATTAAATTTTTT [XGTACX_site5852] | 8.84 |
| CAAAACAAAACGTATGCACACAATTAAAATATTAAA [CACACA_site5815] | 9.54 |
| AAATGTTGAGCAGTACAAAAAAAAAAAAAAAAAAAA [GTGCAC_negctrl_site518] | 8.45 |
| CATTTATATAAAAGAACACACATATAAAATATTATT [CACACA_site3601] | 9.44 |
| TTTTTTTTTTAATTGGGTACATATATAATTTAAGAA [XGTACX_site2732] | 8.76 |
| AAGATACCAATGAAATGTACATATATATAAATATAA [XGTACX_site2135] | 9.35 |
| TTCTTACATGAGTGTACACACTTTTTTTCAGAAAAT [CACACA_site4215] | 9.19 |
| GGTGGGGAGGAGTAATGTACAAATTAACATATTATG [XGTACX_site6666] | 9.52 |
| TTATAAAATATTTATGCATGTGAAGAATATTATAAA [TGCATGCA_site1047] | 9.17 |
| GAAAAAAGTATCAAGGTGCGTATATACATCAAAATA | 9.47 |
| AATAGTCGGGTGCATACACACCTTAAATATAATATA [CACACA_site8271] | 9.25 |
| TTTGAATAAAAACAAAAAATTAAATTAAATTAAATA [CACACA_negctrl_site312] | 8.93 |
| ATTGTGTTAATAAAATGTACATTTTCTCTACATTAA [XGTACX_site2766] | 9.23 |
| TATTTATAATTATAATAATATATATATATATATATA [TGCATGCA_negctrl_site173] | 8.83 |
| ATATATATATATGTATGTACGTATGTATTTACTGCT [XGTACX_site3839] | 9.36 |
| TTCATACATATTTGAAGTACATTTAAAAATGTCCTT [XGTACX_site747] | 8.93 |
| TCCAATATATTTATGAGTACTTATAAATTATACGTT [XGTACX_site742] | 9.23 |
| ATATATGTGTATGTATGTACTTATATTTTTTTTTAT [XGTACX_site1733] | 9.41 |
| GCAAATCAATTTTTTTTTAAAACTCATTTTTTCGTT [CACACA_negctrl_site1136] | 9.22 |
| TCCGTTATATATGTGTGTACATATAATATATCCTCA [XGTACX_site2588] | 9.57 |
